Measured values: US6403764

Legend:
human IGFBP-1 = target: T1, human IGFBP-1 (human, UniProt P08833 26-259); assay: competitive phage ELISA
T1 construct: mature; Secreted recombinant protein; also called IGFBP-I
T1 sequence (looked up): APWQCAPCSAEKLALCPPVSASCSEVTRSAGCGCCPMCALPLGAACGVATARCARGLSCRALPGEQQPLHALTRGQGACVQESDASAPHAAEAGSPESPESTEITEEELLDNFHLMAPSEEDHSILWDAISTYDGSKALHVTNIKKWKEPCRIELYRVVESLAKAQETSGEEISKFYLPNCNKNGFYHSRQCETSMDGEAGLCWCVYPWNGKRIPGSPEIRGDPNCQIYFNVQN
Procedure: (§1) Phage particles were harvested and resuspended in PBS buffer as described in Lowman, H. B., "Phage Display of Peptide Libraries on Protein Scaffolds," in Cabilly, S. (ed.), *Combinatorial Peptide Library Protocols* (Humana Press Inc.: Totowa, N.J., 1998), pp. 249–264. Then phage concentrations were normalized to yield a maximal ELISA signal of 0.2–0.4 for each mutant (Lowman, in Cabilly, S. (ed.), supra). Threefold serial dilutions of soluble competitor were prepared on non-absorbent microtiter plates (Nunc, F, 96 wells) with binding buffer (0.5% TWEEN™ 20/PBS) containing phage at the previously-determined concentrations. The dilution range of competitor protein extended over six orders of magnitude, starting at 5 µM for IGFBP-1 and 500 nM for IGFBP-3. After blocking, the plates containing immobilized target were washed with 0.05% TWEEN™/PBS buffer and subsequently incubated with 80 µl/well of the premixed phage-competitor solutions for 1 hour at room temperature. […] Numbers in Table I represent mean±standard deviation of individually assessed $IC50$ values.
(§2) At least two different clones of every mutant were tested.

[1] = target: T2, recombinant human IGFBP-3 (human, UniProt P17936); assay: competitive phage ELISA
T2 construct: mature; Secreted recombinant protein
Procedure: as §1, §2

T2 sequence (P17936 28-291): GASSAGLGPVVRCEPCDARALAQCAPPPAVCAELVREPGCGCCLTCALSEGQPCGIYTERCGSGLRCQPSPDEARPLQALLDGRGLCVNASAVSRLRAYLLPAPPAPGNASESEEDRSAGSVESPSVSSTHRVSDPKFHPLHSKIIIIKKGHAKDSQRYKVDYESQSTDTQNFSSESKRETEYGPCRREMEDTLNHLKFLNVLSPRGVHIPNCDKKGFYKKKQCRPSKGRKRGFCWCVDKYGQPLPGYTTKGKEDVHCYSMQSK

B1: IGF-I V70A displayed on phage (ligand, not shown: large carriers; small tags and cut ends)
chain: not shown
notes: On phage; single mutant V70A of the G1S-A70V template, which restores native A70
- IC50 (human IGFBP-1): 19.1 nM
- IC50 [1]: 0.68 nM
